According to US5371284A, “Phenyl acetylenic acetals” (Schering Corporation, priority 1993, dated 1994):
At least one read-out could not be matched to a standard name with certainty.

System: LTC4-induced contractions of guinea pig lung parenchyma
Assay: Inhibition of LTC4-induced contractions of guinea pig lung parenchyma strips
Set-up: species or system guinea pig (male Hartley)
Details: 1×10^-8 M LTC4, compound added 5 min before challenge, footnote c = statistically significant (p = 0.05), Student's t test
Experimental: The anti-allergy method of this invention is shown by tests which measure a compound's inhibition of contractile responses of strips of lung parenchyma. Male Hartley guinea pigs (600-800 g body weight) were killed by a blow to the head and then exsanguinated. The lungs were inflated with 5 ml. of air through the trachea, the chest cavity opened, and the lungs perfused in situ through the pulmonary artery with Tyrode's solution. The lower lobe of each lung was excised and dissected into four strips (3×10 mm), each of which was suspended in a constant temperature (37° C.) organ bath containing 10 mL of Tyrode's solution and aerated with 95% O2 -5% CO2. Each lung strip was attached to a Harvard isometric muscle transducer and tension was recorded with a Harvard recording module. The initial tension was adjusted to 2 g and the tissues allowed to equilibrate until a steady baseline was reached. Test compounds (prepared as 200-fold stock solutions in dimethyl sulfoxide (DMSO) or vehicle (0.5% DMSO final concentration) were added to the lung strips 5 min. before the tissues were challenged with final concentrations of 1×10^-8 M LTC4. Lung strips prepared from animals sensitized to ovalbumin were challenged with 0.75)g/mL of ovalbumin. Each lung strip received only a single addition of test compound followed by a single agonist challenge. The peak contractile response to LTC4 was recorded and expressed as a percent of the maximum response (obtained with 1×10^-4 M histamine) of that lung strip. The effect of each test compound is expressed as percent inhibition of the contractile response calculated as follows: [formula]

[1] = test compound at 50)M (so in the source)
[2] = test compound at 10)M (so in the source)

SMILES	% Inhibition of LTC4-induced contractions of guinea pig lung parenchyma [1] [%]	% Inhibition of LTC4-induced contractions of guinea pig lung parenchyma [2] [%]
CCCCCCCCCCc1ccc(C#CC(OCCCC(=O)O)OCCCC(=O)O)cc1 [C10 H21 (para) / O / 2 / 2 / H, 4,4'-(3-(4-decylphenyl)-2-propyn-1-ylidenebisoxy)bisbutanoic acid]	26	
CCCCCCCCCCc1ccc(C#CC(OCCCCCC(=O)O)OCCCCCC(=O)O)cc1 [C10 H21 (para) / O / 4 / 4 / H, 6,6'-(3-(4-decylphenyl)-2-propyn-1-ylidenebisoxy)bishexanoic acid]	9	
CCCCCCC=Cc1ccccc1C#CC(OCCCC(=O)O)OCCCC(=O)O (mixture of isomers) [1-(EZ)-C8 H15 (ortho) / O / 2 / 2 / H, 4,4 '-(3-(2-(1-EZ-octenyl)phenyl)-2-propyn-1-ylidenebisoxy)bisbutanoic acid]	59	0
CCCCCCCCCc1ccc(C#CC(SCCCC(=O)O)SCCCC(=O)O)cc1 [C9 H19 (para) / S / 2 / 2 / H, 4,4'-(3-(4-nonylphenyl)-2-propyn-1-ylidenebisthio)bisbutanoic acid]	100	76
CCCCCCCCc1ccc(C#CC(OCCCCCC(=O)O)OCCCCCC(=O)O)cc1 [C8 H17 (para) / O / 4 / 4 / H, 6,6'-(3-(4-octylphenyl)-2-propyn-1-ylidenebisoxy)bishexanoic acid]	67	24
CCCCCCCc1ccc(C#CC(OCCCCCC(=O)O)OCCCCCC(=O)O)cc1 [C7 H15 (para) / O / 4 / 4 / H, 6,6'-(3-(4-heptylphenyl)-2-propyn-1-ylidenebisoxy)bishexanoic acid]	62	37
CCCCCCC=Cc1ccccc1C#CC(SCCCC(=O)O)SCCCC(=O)O (mixture of isomers) [1-(EZ)-C8 H15 (ortho) / S / 2 / 2 / H, 4,4'-(3-(2-(1-EZ -octenyl)phenyl)-2-propyn-1-ylidenebisthio)bisbutanoic acid]	73	43
CCCCCCCc1ccc(C#CC(SCCCC(=O)O)SCCCC(=O)O)cc1 [C7 H15 (para) / S / 2 / 2 / H, 4,4'-(3-(4-heptylphenyl)-2-propyn-1-ylidenebisthio)bisbutanoic acid]	83	65
CCCCCCC=Cc1cccc(C#CC(OCCCC(=O)O)OCCCC(=O)O)c1 (mixture of isomers) [1-(EZ)-C8 H15 (meta) / O / 2 / 2 / H, 4,4'-(3-(3-(1-EZ-octenyl)phenyl)-2-propyn-1-ylidenebisoxy)bisbutanoic acid]	72	13
CCCCCCC=Cc1cccc(C#CC(SCCCC(=O)O)SCCCC(=O)O)c1 (mixture of isomers) [1-(EZ)-C8 H15 (meta) / S / 2 / 2 / H, 4,4'-(3-(3-(1-EZ-octenyl)phenyl)-2-propyn-1-ylidenebisthio)bisbutanoic acid]	100	75
CCCCCCCCCCc1ccc(C#CC(SCCCC(=O)O)SCCCC(=O)O)cc1 [C10 H21 (para) / S / 2 / 2 / H, 4,4 '-(3-(4-decylphenyl)-2-propyn-1-ylidenebisthio)bisbutanoic acid]	22	
O=C(O)CCCOC(C#Cc1ccccc1)OCCCC(=O)O [H / O / 2 / 2 / H, 4,4'-(3-phenyl-2-propyn-1-ylidenebisoxy)bisbutanoic acid]	1	
CCCCCCCCc1ccccc1C#CC(SCCCC(=O)O)SCCCC(=O)O [C8 H17 (ortho) / S / 2 / 2 / H, 4,4 '-(3-(2-octylphenyl)-2-propyn-1-ylidenebisthio)bisbutanoic acid]	86	38
CCCCCCCCCc1ccc(C#CC(OCCCC(=O)O)OCCCC(=O)O)cc1 [C9 H19 (para) / O / 2 / 2 / H, 4,4'-(3-(4-nonylphenyl)-2-propyn-1-ylidenebisoxy)bisbutanoic acid]	77	66
CCCCCCc1ccc(C#CC(OCCCCCC(=O)O)OCCCCCC(=O)O)cc1 [C6 H13 (para) / O / 4 / 4 / H, 6,6'-(3-(4-hexylphenyl)-2-propyn-1-ylidenebisoxy)bishexanoic acid]	81	25
CCCCCCc1ccc(C#CC(OCCCC(=O)O)OCCCC(=O)O)cc1 [C6 H13 (para) / O / 2 / 2 / H, 4,4'-(3-(4-hexylphenyl)-2-propyn-1-ylidenebisoxy)bisbutanoic acid]	58	5
CCCCCCCCc1ccc(C#CC(SCCCC(=O)O)SCCCC(=O)O)cc1 [C8 H17 (para) / S / 2 / 2 / H, 4,4'-(3-(4-octylphenyl)-2-propyn-1-ylidenebisthio)bisbutanoic acid]	68	71
CCCCCCCc1ccc(C#CC(OCCCC(=O)O)OCCCC(=O)O)cc1 [C7 H15 (para) / O / 2 / 2 / H, 4,4'-(3-(4-heptylphenyl)-2-propyn-1-ylidenebisoxy)bisbutanoic acid]	70	7
CCCCCCCCCc1ccc(C#CC(OCCCCCC(=O)O)OCCCCCC(=O)O)cc1 [C9 H19 (para) / O / 4 / 4 / H, 6,6'-(3-(4-nonylphenyl)-2-propyn-1-ylidenebisoxy)bishexanoic acid]	76	19
CCCCCCc1ccc(C#CC(SCCCC(=O)O)SCCCC(=O)O)cc1 [C6 H13 (para) / S / 2 / 2 / H, 4,4'-(3-(4-hexylphenyl)-2-propyn-1-ylidenebisthio)bisbutanoic acid]	87	43
O=C(O)CCCSC(C#Cc1ccccc1)SCCCC(=O)O [H / S / 2 / 2 / H, 4,4'-(3-phenyl-2-propyn-1-ylidenebisthio)bisbutanoic acid]	4	
O=C(O)CCCCCOC(C#Cc1ccccc1)OCCCCCC(=O)O [H / O / 4 / 4 / H, 6,6'-(3-phenyl-2-propyn-1-ylidenebisoxy)bishexanoic acid]	15	
CCCCCCCCc1ccc(C#CC(OCCCC(=O)O)OCCCC(=O)O)cc1 [C8 H17 (para) / O / 2 / 2 / H, 4,4'-(3-(4-octylphenyl)-2-propyn-1-ylidenebisoxy)bisbutanoic acid]	72	67
CCCCCCCCc1ccc(C#CC(SC(C)CCC(=O)O)SC(C)CCC(=O)O)cc1 (stereo not drawn) [C8 H17 (para) / S / 2 / 2 / --CH3, 4,4'-(3-(4-Octylphenyl)-2-Propyn-1-Ylidinebisthio)Bispentanoic Acid]	66	24
